# Experimental data taken from PMC4336329 (PLoS ONE, 2015).
# Screen size: about 310,000 compounds; about 2,200 (0.71%) showed an effect of 50% or more. The effect is printed as a negative number. The list shows a part of the results.
# Target: human ether-à-go-go-related gene (hERG) potassium channel (human, UniProt Q12809)
# Assay: primary screen, population patch clamp on CHO cells stably expressing hERG
# Sequence of human ether-à-go-go-related gene (hERG) potassium channel (Q12809 whole entry, looked up): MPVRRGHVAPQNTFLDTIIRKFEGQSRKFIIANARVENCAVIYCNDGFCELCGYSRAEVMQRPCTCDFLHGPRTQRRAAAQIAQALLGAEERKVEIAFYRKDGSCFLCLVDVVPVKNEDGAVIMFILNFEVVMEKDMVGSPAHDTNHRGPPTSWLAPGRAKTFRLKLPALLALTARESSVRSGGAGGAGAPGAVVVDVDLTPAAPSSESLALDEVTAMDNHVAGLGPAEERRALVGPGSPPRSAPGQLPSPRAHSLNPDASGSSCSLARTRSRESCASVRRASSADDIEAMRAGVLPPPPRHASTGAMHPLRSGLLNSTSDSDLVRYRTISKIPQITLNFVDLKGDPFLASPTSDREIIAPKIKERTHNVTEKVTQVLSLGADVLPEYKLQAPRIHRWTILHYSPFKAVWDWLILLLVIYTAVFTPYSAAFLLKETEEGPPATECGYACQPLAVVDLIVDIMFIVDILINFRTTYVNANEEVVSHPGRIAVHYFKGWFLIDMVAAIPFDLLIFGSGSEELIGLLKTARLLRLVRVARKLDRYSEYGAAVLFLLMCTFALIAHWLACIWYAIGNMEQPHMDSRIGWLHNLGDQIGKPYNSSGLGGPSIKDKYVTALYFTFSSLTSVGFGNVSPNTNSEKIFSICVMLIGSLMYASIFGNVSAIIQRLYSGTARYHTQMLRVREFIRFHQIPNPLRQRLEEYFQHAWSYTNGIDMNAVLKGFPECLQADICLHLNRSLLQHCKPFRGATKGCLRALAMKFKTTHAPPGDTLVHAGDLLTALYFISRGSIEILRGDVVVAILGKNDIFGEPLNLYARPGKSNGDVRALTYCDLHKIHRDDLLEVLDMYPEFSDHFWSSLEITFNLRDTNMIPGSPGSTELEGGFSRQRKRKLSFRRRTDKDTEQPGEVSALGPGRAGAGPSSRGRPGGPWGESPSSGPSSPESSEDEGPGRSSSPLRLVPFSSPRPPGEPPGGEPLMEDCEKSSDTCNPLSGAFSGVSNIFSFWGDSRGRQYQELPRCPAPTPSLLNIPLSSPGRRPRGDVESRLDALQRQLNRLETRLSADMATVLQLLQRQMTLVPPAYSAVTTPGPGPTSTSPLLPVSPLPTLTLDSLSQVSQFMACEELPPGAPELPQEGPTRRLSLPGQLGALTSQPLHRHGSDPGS
row,Compound,"hERG current change (%, negative = inhibition) at 1uM [%]"
1,Cc1cccc(N=N/C(=C\O)C(=O)c2cccs2)c1,4.53
2,C=CCn1c(-c2sc(-c3ccccc3)nc2C)n[nH]c1=S,8.31
3,O=C(CNC(=O)c1ccccc1)OCc1cccc(Br)c1,2.81
4,CCOc1ccc(-c2nnc(N3CCCCC3)c3ccccc23)cc1,8.06
5,COc1ccc(/C=N/NC(=O)c2[nH]c3ccc(Br)cc3c2-c2ccccc2)c(C(=O)O)c1OC,5.03
6,CN1C(=O)C2(OCC(CO)([N+](=O)[O-])CO2)c2ccccc21 (stereo not drawn),11.1
7,CC1(C)C(C(=O)N2CCN(C(=O)c3ccccc3)CC2)C1(C)C,8.64
8,CCSc1nnc(NC(=O)c2cccnc2Cl)s1,7.17
9,C=CCn1c(CNS(=O)(=O)c2ccc(Cl)cc2)n[nH]c1=S,6.06
10,C=CCOC(=O)C(C#N)c1nc2ccccc2nc1N1CCN(Cc2ccccc2)CC1 (stereo not drawn),-21.7
11,O=C(CN1CCCCCC1)Nc1ccc(Br)cc1Br,9.18
12,COc1ccc(NC(=O)c2cc(-c3ccccc3O)n[nH]2)cc1Cl,18.1
13,Cc1ccc(C(=O)NCCSc2c(C)[nH]c3ccccc23)cc1[N+](=O)[O-],10.5
14,O=C(O)/C=C/C(=O)N1CCN(c2ccccc2F)CC1,8.26
15,COc1cc(S(=O)(=O)NCC(c2ccco2)N2CCCCC2)ccc1NC(C)=O.Cl (stereo not drawn),5.43
16,C=CCn1c(Sc2nnc(C)s2)nc2c1c(=O)[nH]c(=O)n2C,11
17,Cn1c(-n2c(-c3ccco3)nc3ccccc3c2=O)nc2ccccc21,16.4
18,CCC(=O)Nc1ccc(N2CCN(C(=O)c3ccccc3C)CC2)cc1,4.68
19,O=C(O)C1CCc2sc3[nH]c(=S)n(-c4ccccc4)c(=O)c3c21 (stereo not drawn),13.7

row,Compound,"hERG current change (%, negative = inhibition) at 1uM [%]"
1,O=C(NCc1ccccc1CN1CCCC1)c1cc2cc(Cl)ccc2o1,-7.54
2,COc1ccc(-n2c3c(cc(C(=O)Nc4ccc(C)cc4)c2=O)C(=O)CCC3)cc1,-2.91
3,O=c1c2ccccc2c(C=NCCc2ccccc2)c(O)n1Cc1ccccc1,8.59
4,Cc1ccc(CNC(=O)C2COc3ccccc3O2)cc1 (stereo not drawn),8.38
5,COc1ccc(C(=O)NC2CCN(S(=O)(=O)c3ccc(F)cc3)CC2)cc1,11.9
6,Cc1cccc(C(=O)N2CCCC(N3CCN(c4ccccc4F)CC3)C2)n1 (stereo not drawn),8.48
7,CCOC(=O)C(C)Sc1nnc2n1C(C)(C)Cc1ccccc1-2 (stereo not drawn),1.07
8,CCN1CCN(Cc2nc3c(c(=O)n(C)c(=O)n3C)n2CC(=O)c2ccccc2)CC1,15.7
9,CN1CCC(=NNC(=O)C(=O)NCc2ccccc2)CC1,4.35
10,CCN(CC)S(=O)(=O)c1ccc(C(=O)N2CCc3ccccc32)cc1,7.93
11,O=C(Nc1cnn(C23CC4CC(CC(C4)C2)C3)c1)c1cc(-c2ccccc2)on1,5.24
12,COc1cccc(N/C=C/C(=O)c2ccc(Cl)cc2)c1,9.03
13,COc1ccc(CNC(=O)CSc2ncnc3ccccc23)cc1OC,5.26
14,Cc1cccnc1NC(=O)c1c(O)c2cccc3c2n(c1=O)CCC3,12.4
15,COc1ccc(OC)c(C2C(C(=O)c3ccc(C)o3)=C(O)C(=O)N2c2cc(C)on2)c1 (stereo not drawn),10.8
16,COc1ccc(-c2cc(C(F)(F)F)n3ncc(C(=O)N(C)Cc4ccccc4)c3n2)cc1,10.1
17,Clc1ccc(Oc2nc(N3CCOCC3)nc(N3CCOCC3)n2)cc1,-0.674
18,Cn1c(=O)oc2cc(S(=O)(=O)Nc3ccc4c(c3)OCCO4)ccc21,11.1
19,CC(=O)N1c2ccccc2Oc2cc3ccccc3cc21,8.67

row,Compound,"hERG current change (%, negative = inhibition) at 1uM [%]"
1,CC(NC(=O)CCC(=O)N1CCN(S(=O)(=O)c2ccc(Cl)cc2)CC1)c1ccccc1 (stereo not drawn),-4.09
2,COc1cccc(-c2cc(C(=O)NCC3CCCO3)c3ccccc3n2)c1 (stereo not drawn),9.71
3,O=C(NCc1cccnc1)c1ccc(=O)oc1,-1.38
4,COc1ccc(NC(=O)CSc2nc(=O)n(CCN(C)C)c3c2CCCC3)cc1OC,11.7
5,CCOC(=O)Cc1csc(SCC(=O)Nc2cccc(C#N)c2)n1,12.2
6,Cc1ccc(NC(=O)OCc2cncs2)cc1,9.49
7,CSc1cccc(CN2CCC(CO)(Cc3ccccc3)CC2)c1,-1.47
8,O=C(CCc1nnc(Cc2ccc(-c3ccccc3)cc2)o1)NCC1CC1,6.1
9,Cc1nnc(SCC(N)=O)n1CCc1ccccc1,10.9
10,CC1Cc2ccccc2N1S(=O)(=O)c1cccc(C(=O)N2CCN(c3ncccn3)CC2)c1 (stereo not drawn),11
11,Cn1ncc(Br)c1C(=O)NC(=S)N1CCN(c2ccccn2)CC1,3.64
12,O=C(NC1CCCCCCC1)c1ccc2c(c1)OCO2,11.9
13,CCC1CCCCN1CCNC(=O)C1CCCN(S(=O)(=O)c2cccc3nsnc23)C1 (stereo not drawn),0.484
14,O=[N+]([O-])c1cccc(-c2ccc(C(=S)N3CCN(c4ccccc4)CC3)o2)c1,15
15,O=C(NN1C(=O)/C(=C/C=C/c2ccccc2)SC1=S)c1ccncc1,11.2
16,COC(=O)C1=C(C)Nc2ncnn2C1c1ccco1 (stereo not drawn),9.82
17,O=C(NCC(c1ccc(F)cc1)N1CCOCC1)c1cccnc1Sc1ccccc1 (stereo not drawn),12.9
18,O=C(Nc1ccc2c(c1)OCCO2)c1ccc(Cl)c([N+](=O)[O-])c1,8.05
19,CN(CC(=O)Nc1ccccc1Cl)C(=O)COC(=O)c1ccc([N+](=O)[O-])cc1Cl,10.2
